Test results from PubChem BioAssay AID1346428 (National Center for Advancing Translational Sciences (NCATS), 2018).
The whole screen tested about 48,000 compounds, of which about 1,200 (2.5%) were called active. About 2% were inconclusive and are not listed.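 How the source made its calls: active means activation of at least 60% and not above a set upper limit (about 1 call in 100 departs from these limits); inconclusive means activation of 40% to 60%, or above that upper limit; inactive means activation under 40%.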 Some of the results follow.

target: Probable G-protein coupled receptor 32 (Homo sapiens) (UniProt O75388); assay: qHTS for Agonists of Human Resolvin D1 Receptor DRV1; conditions: CHO-K1 GPR32 beta-arrestin PathHunter luminescence, 90 min; at 76.9 µM; hits give high values; zero percent set by DMSO-only wells; further: 0% is about no effect
Sequence of UniProt O75388 (O75388 whole entry, looked up): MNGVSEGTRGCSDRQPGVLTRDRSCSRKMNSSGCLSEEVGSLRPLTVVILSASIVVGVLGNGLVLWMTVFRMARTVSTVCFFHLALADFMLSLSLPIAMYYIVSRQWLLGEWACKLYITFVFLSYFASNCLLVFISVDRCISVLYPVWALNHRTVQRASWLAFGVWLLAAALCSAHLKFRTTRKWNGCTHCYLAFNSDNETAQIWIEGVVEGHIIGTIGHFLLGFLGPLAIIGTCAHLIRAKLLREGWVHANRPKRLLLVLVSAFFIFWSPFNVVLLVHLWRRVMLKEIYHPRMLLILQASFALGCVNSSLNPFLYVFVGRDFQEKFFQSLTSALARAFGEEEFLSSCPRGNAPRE
Procedure, shortened: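 Using DMSO wells as EC0, agonist-induced signal was taken as chemiluminescence from beta-Gal reconstituted upon beta-arrestin recruitment to GPR32 in CHO-K1 cells after 90 min compound treatment.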

SMILES	activation
CC(=O)c1c(C)oc2c(Cl)cc(NS(=O)(=O)c3cc(C)c(C)cc3C)cc12	inactive: 5.81%
Cc1ccc(S(=O)(=O)c2nnn(CC(=O)Nc3ccccc3C)c2N)cc1C	inactive: 12.9%
O=C(CCC1N=C2c3ccccc3N=C(SCc3ccccc3Cl)N2C1=O)NCc1cccs1 (stereo not drawn)	inactive: -22.3%
O=C(NCc1ccccc1F)C(=O)NCC(c1cccs1)S(=O)(=O)c1cccs1 (stereo not drawn)	inactive: 39%
CCOc1ccc(OCC)c(NC(=O)c2cnc3c(-c4ccccc4)c(C)nn3c2C)c1	inactive: -20.8%
CC(C)Cc1ccc(S(=O)(=O)Nc2ccc3[nH]c(=O)[nH]c3c2)cc1	inactive: 12.8%
O=c1c2oc3ccccc3c2n(Cc2cccc(Cl)c2)c(=O)n1Cc1ccc2c(c1)OCO2	inactive: -5.92%
COC(=O)c1cc2oc(C)cc2n1Cc1cccc(Cl)c1	inactive: -29.8%
Cc1ccc(-n2c(=O)c3c(c4cc(C)ccc4n3C)n(CC(=O)NCCC3=CCCCC3)c2=O)cc1	inactive: -13.6%
O=C(NCc1cccc(Cl)c1)c1ccc(CS(=O)Cc2ccccc2Cl)o1 (stereo not drawn)	inactive: -15%
COc1ccccc1OCC(=O)NCC1(N2CCOCC2)CCCCC1	inactive: -4.16%
CC(C)(C=O)Cc1cc(C(C)(C)C)c(O)c(C(C)(C)C)c1	inactive: -30.8%
CCOC(=O)c1nc(Nc2ccc(OC)cc2)c2ccccc2n1	inactive: -2.93%
O=S(=O)(NCc1ccc(F)cc1)c1ccc2[nH]c3c(c2c1)CCCCC3	inactive: 6.8%
Cc1ccccc1Nc1c(-c2cccc(O)c2)nc2ccc(Br)cn12	inactive: -21.8%
CC(C)CCNC(=O)c1ccc(Cn2c(=O)c3cccn3c3cccnc32)cc1	inactive: -9.01%
CCOc1ccc(CNC(=O)c2ccc3c(c2)sc2nc(-c4ccc(OC)cc4)cn23)cc1	inactive: 13%
COc1cc(OC)c(NC(=O)CSC2=Nc3ccccc3N=C(c3ccc(F)cc3)C2)cc1Cl	inactive: 5.43%
Cc1cccc(Nc2nc(Nc3cccc(C)c3)nc(N3CCOCC3)n2)c1	inactive: -23.9%
Cc1cc2c(n1-c1ccc(C(=O)NCC(C)c3ccccc3)cc1)CCCC2 (stereo not drawn)	inactive: -18.6%
Cc1ccc(-c2nn(-c3cccc([N+](=O)[O-])c3)c3c2cnc2ccc(F)cc23)cc1	inactive: 12.3%
CC(=O)[C@H]1CCC2C3CC=C4C[C@@H](OS(=O)(=O)O)CC[C@]4(C)C3CC[C@@]21C (stereo partly drawn)	inactive: 14.3%
Cc1sc(C2C(C#N)=C(N)N(c3cccc(Cl)c3)C3=C2C(=O)CCC3)cc1CN1CCOCC1 (stereo not drawn)	inactive: -1.1%
Cc1ccc(CNC(=O)c2cc(S(=O)(=O)N3CCCC(C)C3)cn2C)cc1 (stereo not drawn)	inactive: -1.82%
COc1ccc(-n2c(=O)c3c(c4cc(OC)ccc4n3C)n(CC(=O)NCC3CCCO3)c2=O)cc1 (stereo not drawn)	inactive: 22.3%
CCN(CCCNC(=O)c1ccc(Sc2ccc(C)cc2)c(NC(C)=O)c1)c1cccc(C)c1	inactive: -19.5%
COc1ccc(-c2n[nH]c3c2C(c2ccc(Cl)cc2Cl)NC3=O)cc1 (stereo not drawn)	active: 87%

SMILES	activation
CC(CCO)Nc1nc2c(c(=O)n(C)c(=O)n2C)n1Cc1ccc(Br)cc1 (stereo not drawn)	inactive: -9.66%
Cc1ccc(F)cc1NC(=O)CCc1c(C)nn(-c2ccc(N3CCCCC3)nn2)c1C	inactive: -4.48%
CCOc1cccc(C(=O)Nc2ccc3oc(-c4ccc(C(C)(C)C)cc4)nc3c2)c1	inactive: -1.55%
COc1ccc(NC(=O)Cn2c(=O)n(-c3cccc(C)c3)c(=O)c3c2c2cc(C)ccc2n3C)cc1OC	inactive: 18.2%
Cc1ccc2oc(-c3ccc(C)c(NC(=O)c4ccc5c(c4)OCCO5)c3)nc2c1	inactive: 0.0312%
C#CCSc1nc2sc3c(c2c(=O)n1-c1cccc(OC)c1)CCN(C(C)=O)C3	inactive: -3.76%
Cc1ccc(S(=O)(=O)Nc2ccc(-c3ccc(N4CCCCCC4)nn3)cc2)cc1C	inactive: -6.38%
CCc1nn2c(-c3ccco3)ccnc2c1-c1ccc(F)cc1	inactive: -4.52%
CCOC(=O)c1ccc(-c2ccc(/C=C(\C#N)C(=O)Nc3c(C)cccc3Cl)o2)cc1	inactive: -30.4%
COc1cc(Cl)c(NC(=O)c2cc(S(=O)(=O)N3CCOCC3)cn2C)c(OC)c1	inactive: -19.3%
O=c1c2sc3ccccc3c2n(Cc2ccc(F)cc2)c(=O)n1Cc1ccccc1	inactive: 10.2%
CCc1cccc(CC)c1NC(=O)CCS(=O)(=O)c1ccc(Br)cc1	inactive: -11.3%
COc1ccc(-c2ccc(NS(=O)(=O)c3ccccc3)cc2)nn1	inactive: 4.22%
CCOc1ccc(-c2cc(C(=O)NCc3ccc(OCC)c(OC)c3)[nH]n2)cc1	inactive: -3.64%
Cc1ccc(NC(=O)CSc2ncccc2C(=O)Oc2ccccc2Cl)cc1Cl	inactive: -6.56%
COc1ccc2[nH]cc(CCNC(=O)Nc3c(C)cccc3C)c2c1	inactive: 32.2%
Cc1cc(C)n2nc(SCC(=O)Nc3ccc(O)cc3)nc2n1	inactive: -2.75%
Cc1ccccc1-c1nc2c(c(SCc3cccc(Cl)c3)n1)Cc1c(CO)cnc(C)c1O2	inactive: 7.31%
Cc1cc(NC(=O)CN(C)S(=O)(=O)c2ccc3c(c2)CCCC(=O)N3)ccc1Br	inactive: 49.2%
CCOC(=O)c1cc(-c2ccccc2)n(CCC(=O)Nc2ccc(OC)c(Cl)c2)c1C	inactive: -30.7%
COc1cc(C)ccc1OCCSc1nc2ccc(NC(=O)c3ccc4c(c3)OCO4)cc2s1	inactive: -2.39%
COc1cc(-c2nc(Cn3nnc(C(=O)Nc4ccccc4C)c3C)c(C)o2)cc(OC)c1OC	inactive: 17.3%
CCc1ccc(NC(=O)Cn2c(=O)n(CCCC(=O)NCc3ccccc3OC)c(=O)c3ccccc32)cc1	inactive: -6.24%
Cc1ccc(C)c(NC(=O)c2ccc(=O)n(Cc3ccc(F)cc3)c2)c1	inactive: 24.7%
COc1ccc(C)cc1NC(=O)c1ccc2c(c1)N(Cc1cccc(Cl)c1)C(=O)c1ccccc1S2=O (stereo not drawn)	inactive: -27.5%
CNC1CCCN(c2c(F)cc3c(=O)c(C(=O)O)cn(C4CC4)c3c2OC)C1 (stereo not drawn)	inactive: -12%
